{"source": "PubChem BioAssay AID493208", "about": "(National Center for Advancing Translational Sciences (NCATS), 2011)", "note": "The whole screen tested about 44,000 compounds, of which about 340 (0.77%) were called active. Roughly 5% stayed inconclusive and do not appear here. Calls come from the whole dose curve; as a rule, active = well fitted inhibition curve with a large enough effect; inconclusive = small, poorly fitted or top-dose-only effect; inactive = flat fitted curve, though single readings scatter. The list shows a part of the results. Potency is the fitted concentration of half-maximal effect.", "data": [{"experiment": "Acumen qHTS Assay for Inhibitors of the mTORC1 Signaling Pathway in MEF (Tsc2-/-, p53-/-) Cells: Sytravon; note: nearly all actives have a fitted effect of over 50% in size;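 for activity change, negative = inhibition: plate controls were DMSO for no effect and rapamycin for full effect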", "details": "phospho-rpS6 immunofluorescence/PI, 24 h; series mostly up to 38.3 µM; activity change, negative = inhibition: at the top concentration", "summary_of_the_method": "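Read-out: phospho-S6 Alexa-488 intensity over PI intensity per well, scored as % active cells using thresholds from rapamycin (7.5 nM) and DMSO controls. Tsc2-/-, p53-/- MEFs exposed to compound for 24 h; PI cell count recorded as viability.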", "values": [{"smiles": "Cc1cn2c(=O)cc(COC(=O)c3cccc(NC(=O)c4ccccc4Cl)c3)nc2s1", "activity change, negative = inhibition": "inactive: 6.17%"}, {"smiles": "CCc1ccc(CNC(=O)CN2C(=O)CSc3c2c(C)nn3-c2ccccc2)cc1", "activity change, negative = inhibition": "inactive: -5.11%"}, {"smiles": "COc1ccc(NC(=O)CC2C(=O)N(c3cccc(C)c3)C(=O)N2Cc2cccnc2)cc1", "note": "(stereo not given)", "activity change, negative = inhibition": "inactive: -5.45%"}, {"smiles": "Cc1ccc(CNc2ncnc3c2nnn3C)cc1", "activity change, negative = inhibition": "inactive: -6.4%"}, {"smiles": "Cc1ccc(C)c(NC(=O)Nc2csc3c2CCCC3)c1", "activity change, negative = inhibition": "inactive: -10.9%"}, {"smiles": "CCOc1ccc2nc(N3CCCC(C(=O)NCc4ccc(C)cc4)C3)sc2c1", "note": "(stereo not given)", "activity change, negative = inhibition": "inactive: -0.477%"}, {"smiles": "CC(C)NC(=O)C1CCN(C(=O)N2CC(C)Oc3ccccc32)CC1", "note": "(stereo not given)", "activity change, negative = inhibition": "inactive: 5.53%"}, {"smiles": "COc1ccccc1NC(=O)Cn1c(=O)n(Cc2nc(-c3ccccc3)no2)c(=O)c2ccccc21", "activity change, negative = inhibition": "inactive: -5.17%"}, {"smiles": "CCC1=C(c2ccc(C)cc2)S(=O)(=O)N=C1N1CCC(C(=O)N2CCCCC2)CC1", "activity change, negative = inhibition": "inactive: -3.96%"}, {"smiles": "CCS(=O)(=O)NCCc1csc2nc(-c3ccc(C)cc3)nn12", "activity change, negative = inhibition": "inactive: 0.848%"}, {"smiles": "COc1ccc(NC(=O)Cn2cc(C(=O)c3cccs3)c3ccccc32)cc1", "activity change, negative = inhibition": "inactive: -17.4%"}, {"smiles": "O=C(COCc1cc(-c2cccs2)on1)Nc1cccc(O)c1", "activity change, negative = inhibition": "inactive: 0.435%"}, {"smiles": "Cc1cccc(-n2c(-c3ccco3)nc3c(cnn3-c3ccc(F)cc3)c2=O)c1", "activity change, negative = inhibition": "inactive: -4.24%"}, {"smiles": "Cc1ccc(-n2cnc3cc(C(=O)NC4CCCCCC4)ccc32)cc1Cl", "activity change, negative = inhibition": "inactive: 0%"}, {"smiles": "COC(=O)c1c(C)sc(-c2c(-c3ccc4c(c3)OCCO4)[nH]c3c2c(=O)[nH]c(=O)n3C)c1O", "activity change, negative = inhibition": "inactive: -1.09%"}, {"smiles": "COc1ccc(-c2nn(C)c3sc(C(=O)N4CCN(c5cccc(Cl)c5)CC4)cc23)cc1OC", "activity change, negative = inhibition": "inactive: 4.15%"}, {"smiles": "CC1CCc2c(sc(NC(=O)c3cc(-c4ccc(Br)cc4)on3)c2C(N)=O)C1", "note": "(stereo not given)", "activity change, negative = inhibition": "inactive: 0.717%"}, {"smiles": "Cc1c(CNCCCc2ccccc2)c(C(=O)O)c(C)n1Cc1cccc(Cl)c1", "activity change, negative = inhibition": "inactive: -0.172%"}, {"smiles": "COc1ccc(NC(=O)C2CCN(S(=O)(=O)c3c(C)noc3/C=C/c3ccc(C)cc3)CC2)cc1Cl", "activity change, negative = inhibition": "inactive: 2.02%"}, {"smiles": "COc1ccc(S(=O)(=O)c2cn(C)c3cc(N4CCOCC4)c(F)cc3c2=O)cc1", "activity change, negative = inhibition": "inactive: 1.07%"}, {"smiles": "Cc1ccc(NS(=O)(=O)c2ccc3[nH]c4c(c3c2)CCCCC4)cc1", "activity change, negative = inhibition": "inactive: -11.9%"}, {"smiles": "Cc1ccc(OCc2cc(=O)n3cc(C)sc3n2)c(C)c1", "activity change, negative = inhibition": "inactive: -3.36%"}, {"smiles": "CCc1ccc(OCC(=O)Nc2ccc(Cl)c(-c3nc4ncccc4o3)c2)cc1", "activity change, negative = inhibition": "inactive: -4.1%"}, {"smiles": "CCc1ccc(OCC(=O)Nc2ccc3oc(-c4ccc(OC)cc4)nc3c2)cc1", "Potency": "active: 13.1 µM"}, {"smiles": "O=C(COc1ccccc1)Nc1c(Cl)ccc2nsnc12", "activity change, negative = inhibition": "inactive: -0.78%"}, {"smiles": "COC(=O)CC1Oc2ccc(Cl)cc2-n2cc(-c3ccc(F)cc3)nc21", "note": "(stereo not given)", "activity change, negative = inhibition": "inactive: -16%"}, {"smiles": "Cc1ccc(C)c(N(C)S(=O)(=O)c2ccc3[nH]cc(C(=O)NC4CCCC4)c(=O)c3c2)c1", "activity change, negative = inhibition": "inactive: 3.29%"}, {"smiles": "CCN1CCN(C(=O)c2c(C)nn(-c3ccc(F)cc3)c2-n2cccc2)CC1", "activity change, negative = inhibition": "inactive: 3.64%"}, {"smiles": "CC(C)(C)NC(=O)CCSc1nc(-c2ccc3c(c2)OCO3)cc(C(F)(F)F)n1", "activity change, negative = inhibition": "inactive: 8.97%"}, {"smiles": "CCOC(=O)c1cccc(NC(=O)c2nn(-c3ccc(OC)cc3)c(=O)c3c2c2ccccc2n3C)c1", "activity change, negative = inhibition": "inactive: 1.01%"}, {"smiles": "CN(Cc1ccccc1)c1ccc(-c2nc(-c3cccnc3)no2)cc1[N+](=O)[O-]", "activity change, negative = inhibition": "inactive: 4.16%"}, {"smiles": "CCN(Cc1ccccc1)S(=O)(=O)c1ccc2[nH]c3c(c2c1)CCCCC3", "activity change, negative = inhibition": "inactive: -7.52%"}, {"smiles": "Cc1cc(-c2nc3ncccc3o2)ccc1NC(=O)COc1cc(C)c(Cl)c(C)c1", "activity change, negative = inhibition": "inactive: 0.862%"}, {"smiles": "CCC(C(=O)NCCc1cc(OC)ccc1OC)n1nc(C)c2sc3ccccc3c2c1=O", "note": "(stereo not given)", "activity change, negative = inhibition": "inactive: -14.9%"}, {"smiles": "CN(C)c1ccc(CNC(=O)c2cccn2-c2nnc(N3CCCCC3)s2)cc1", "activity change, negative = inhibition": "inactive: -6.4%"}, {"smiles": "CCOC(=O)c1cnc2nc(NCc3ccc(OCC)cc3)[nH]n2c1=O", "activity change, negative = inhibition": "inactive: -1.21%"}, {"smiles": "Cc1ccc(C)c(NC(=O)CSc2nc(-c3ccccc3Cl)nc3c2Cc2c(CO)cnc(C)c2O3)c1", "activity change, negative = inhibition": "inactive: -1.5%"}, {"smiles": "CCCCOc1ccc(C(=O)NCCc2csc(-c3ccc(OC)cc3)n2)cc1", "activity change, negative = inhibition": "inactive: -21%"}, {"smiles": "O=C(NCc1ccc(F)cc1)C(=O)NCC(c1cccs1)S(=O)(=O)c1cccs1", "note": "(stereo not given)", "activity change, negative = inhibition": "inactive: -0.381%"}, {"smiles": "COc1ccccc1CNC(=O)c1ccc2c(c1)N(Cc1ccc(C)cc1)CCS2", "activity change, negative = inhibition": "inactive: -1.84%"}, {"smiles": "CCc1ccccc1NC(=O)CN1C(=O)COc2ccc(S(=O)(=O)N3CCCCCC3)cc21", "activity change, negative = inhibition": "inactive: -4.01%"}, {"smiles": "CCN(CC)S(=O)(=O)c1ccc2c(c1)N(CC(=O)NCC(C)c1ccccc1)C(=O)CO2", "note": "(stereo not given)", "activity change, negative = inhibition": "inactive: -3.53%"}, {"smiles": "CCn1cc(C(=O)N2CCN(c3ccccc3OC)CC2)c(=O)c2cc(S(=O)(=O)N3CCC(C)CC3)ccc21", "activity change, negative = inhibition": "inactive: 3.36%"}, {"smiles": "CC(C)Oc1ccc(CNC(=O)c2ccccc2NC(=O)c2nsc3ccccc23)cc1", "activity change, negative = inhibition": "inactive: 12%"}, {"smiles": "Cc1ccc(NC(=O)CSc2nc3ccc(NC(=O)CCc4ccccc4)cc3s2)c(C)c1", "activity change, negative = inhibition": "inactive: 0.282%"}, {"smiles": "CCN(CC)C(=O)C1=CC(c2ccc3c(c2)OCO3)=NS(=O)(=O)N1C", "activity change, negative = inhibition": "inactive: 3.85%"}, {"smiles": "O=C(CCCCn1c(=O)c2ccccc2n(Cc2ccccc2F)c1=O)NCc1ccccc1Cl", "activity change, negative = inhibition": "inactive: -3.99%"}, {"smiles": "O=S(=O)(NCCc1nnc2ccc(SCc3c(F)cccc3Cl)nn12)c1ccccc1", "activity change, negative = inhibition": "inactive: 3.01%"}, {"smiles": "Cc1oc(-c2ccccc2F)nc1CSCC(=O)NCCc1ccccc1", "activity change, negative = inhibition": "inactive: 2.26%"}, {"smiles": "CCC(Oc1ccccc1)C(=O)Nc1ccc(OCc2cc(=O)n3ccc(C)cc3n2)cc1", "note": "(stereo not given)", "activity change, negative = inhibition": "inactive: 3.22%"}, {"smiles": "CC(C)CCNC(=O)c1cc(Sc2ccc(F)cc2F)nc2ccccc12", "activity change, negative = inhibition": "inactive: 2.31%"}, {"smiles": "COc1ccc(N2C(=O)CS(=O)(=O)C23C(=O)N(Cc2c(F)cccc2Cl)c2ccccc23)cc1", "note": "(stereo not given)", "activity change, negative = inhibition": "inactive: -4.61%"}, {"smiles": "COc1ccc(NC(=O)C2=C(C)Nc3ncnn3C2c2ccccn2)cc1", "note": "(stereo not given)", "activity change, negative = inhibition": "inactive: -0.701%"}, {"smiles": "CCCCn1cc(S(=O)(=O)c2ccccc2)c(=O)c2cc(F)c(N3CCC(C)CC3)cc21", "activity change, negative = inhibition": "inactive: -0.184%"}, {"smiles": "CCOC(=O)c1cnc2c(C)cc(C)cc2c1Nc1ccc(OCc2ccccc2)cc1", "activity change, negative = inhibition": "inactive: 12.8%"}, {"smiles": "O=C(CN1CCN(CC(=O)Nc2ccccc2F)CC1)Nc1ccc(Cl)c(C(F)(F)F)c1", "activity change, negative = inhibition": "inactive: -11.2%"}, {"smiles": "CCOC(=O)C1=C(C(F)(F)F)Nc2ncnn2C1c1cccc(OC)c1OC", "note": "(stereo not given)", "activity change, negative = inhibition": "inactive: 0.758%"}, {"smiles": "CC1=C(c2ccc(C)c(C)c2)S(=O)(=O)N=C1N1CCC(C(=O)N2CCCCC2)CC1", "activity change, negative = inhibition": "inactive: 0.696%"}, {"smiles": "CCOc1ccc(CNC(=O)CCc2cn(CC)c3ccccc23)cc1", "activity change, negative = inhibition": "inactive: -4.62%"}, {"smiles": "CCc1ccc(NC(=O)C2CCN(S(=O)(=O)c3c(C)noc3/C=C\\c3ccc(OC)cc3)CC2)cc1", "activity change, negative = inhibition": "inactive: -11.9%"}]}]}
